# Results reported in PMC4336329 (PLoS ONE, 2015).
# About 2,200 (0.71%) of roughly 310,000 compounds showed an effect of 50% or more. The effect is printed as a negative number. The list shows a part of the results.
# Target: human ether-à-go-go-related gene (hERG) potassium channel (human, UniProt Q12809)
# Experiment: primary screen, population patch clamp on CHO cells stably expressing hERG
# Chain of human ether-à-go-go-related gene (hERG) potassium channel (Q12809 whole entry, looked up): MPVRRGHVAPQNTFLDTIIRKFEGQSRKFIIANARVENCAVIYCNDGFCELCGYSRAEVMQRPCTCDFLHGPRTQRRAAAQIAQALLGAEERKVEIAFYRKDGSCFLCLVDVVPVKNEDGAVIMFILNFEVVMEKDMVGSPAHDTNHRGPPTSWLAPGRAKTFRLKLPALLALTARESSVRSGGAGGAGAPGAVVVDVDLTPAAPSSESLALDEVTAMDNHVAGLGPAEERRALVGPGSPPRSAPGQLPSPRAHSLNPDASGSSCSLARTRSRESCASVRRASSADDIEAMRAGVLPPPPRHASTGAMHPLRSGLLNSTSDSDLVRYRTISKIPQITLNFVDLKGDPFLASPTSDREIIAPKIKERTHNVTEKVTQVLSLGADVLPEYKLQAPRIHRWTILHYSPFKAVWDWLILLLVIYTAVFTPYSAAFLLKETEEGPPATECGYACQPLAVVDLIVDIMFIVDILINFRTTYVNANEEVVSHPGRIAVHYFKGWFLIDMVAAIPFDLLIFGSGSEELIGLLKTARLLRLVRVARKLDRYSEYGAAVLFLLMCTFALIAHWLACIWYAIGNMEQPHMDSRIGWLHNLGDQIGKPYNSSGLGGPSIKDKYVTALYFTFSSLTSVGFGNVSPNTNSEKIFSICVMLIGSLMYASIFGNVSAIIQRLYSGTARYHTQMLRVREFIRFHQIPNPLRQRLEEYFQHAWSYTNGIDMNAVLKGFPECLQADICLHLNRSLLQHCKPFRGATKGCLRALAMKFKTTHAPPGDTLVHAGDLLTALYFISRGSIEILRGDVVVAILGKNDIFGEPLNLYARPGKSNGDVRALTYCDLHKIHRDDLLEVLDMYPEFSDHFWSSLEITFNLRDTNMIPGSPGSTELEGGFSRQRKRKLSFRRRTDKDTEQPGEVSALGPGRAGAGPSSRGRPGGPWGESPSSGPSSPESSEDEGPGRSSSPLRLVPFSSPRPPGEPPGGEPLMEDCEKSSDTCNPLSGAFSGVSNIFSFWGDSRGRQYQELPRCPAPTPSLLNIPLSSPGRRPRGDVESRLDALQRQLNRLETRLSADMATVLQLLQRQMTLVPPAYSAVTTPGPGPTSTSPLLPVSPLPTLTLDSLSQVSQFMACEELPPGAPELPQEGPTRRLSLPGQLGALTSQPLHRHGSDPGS
row,Compound,"hERG current change (%, negative = inhibition) at 1uM [%]"
1,CCN(CC(=O)Nc1ccccc1OC)C(=O)Cn1cnc2ccccc2c1=O,4.69
2,Cc1ccc2[nH]c(C(=O)NN=C3CCCCC3)c(-c3ccccc3)c2c1,2.8
3,CC(C(=O)Nc1ccccc1)N(C)CCOc1ccccc1 (stereo not shown),1.72
4,N#Cc1ccccc1NC(=O)CSC1=Nc2ccccc2C2CC=NN12 (stereo not shown),5.39
5,CCCN1Cc2cccc(C(=O)Nc3ccc(-c4nc5ccccc5[nH]4)cc3)c2C1=O,10.4
6,COc1cc(C(=O)Nc2cccc3c2CCCC3)cc(OC)c1OC,10.3
7,O=C(NC(=S)Nc1cccc(NC(=S)NC(=O)c2ccco2)n1)c1ccco1,16.4
8,O=C(NCc1ccccc1)C(c1cccnc1)N(C(=O)c1ccccn1)c1cccc(F)c1 (stereo not shown),0.684
9,CCOc1ccc(C(CC(=O)O)NC(=O)C(Sc2ccccc2)c2ccccc2)cc1 (stereo not shown),13.1
10,Nc1nc(CN2CCN(Cc3ccc4c(c3)OCO4)CC2)nc(Nc2ccccc2)n1,-77.4
11,Cc1ccc(-n2nnnc2-c2cnn(-c3ccc(F)cc3)c2C(F)(F)F)cc1,-1.22
12,Cc1cccc(NC(=O)N2CCC(NC(=O)C3CCCCC3)CC2)c1,10.9
13,CC1(C)CC(=O)C(N=Nc2cc(C(F)(F)F)ccc2Cl)=C(O)C1,8.53
14,Cn1c(=O)c2sccc2n2c(CCCC(=O)NCCc3ccc(S(N)(=O)=O)cc3)nnc12,10.9
15,CCCN1C2=NCCCN2c2ccccc21.Cl,7.07
16,CCOC(=O)c1cnc(-c2ccccc2)nc1N,5.65
17,Nc1nc(NCc2ccco2)nc(Nc2cccc(F)c2)c1[N+](=O)[O-],18.1
18,CC1CCCN(S(=O)(=O)c2ccc(C(=O)Nc3nnc(C4CC4)o3)cc2)C1 (stereo not shown),11.7
19,Cc1cccc(OCC(=O)NNS(=O)(=O)c2ccccc2F)c1,11.6
20,Cc1ccccc1OC(C)C(=O)NCc1cccnc1 (stereo not shown),6.68
21,COc1ccccc1NS(=O)(=O)c1cc(NC(=O)c2ccc(=O)[nH]c2)ccc1N1CCOCC1,-0.586
22,Cc1cc(C)c(S(=O)(=O)N(C)CC(=O)NCc2cccnc2)c(C)c1,4.04

row,Compound,"hERG current change (%, negative = inhibition) at 1uM [%]"
1,CCCC(=O)c1cc2c(cc1NC(=O)CC)OCCO2,0.999
2,CCSC1=N/C(=C\c2ccc(OC)cc2)C(=O)N1,9.9
3,Cc1c(NC(=O)Cc2noc3ccccc23)cccc1[N+](=O)[O-],12
4,COc1ccc(C(=O)N/N=C/c2ccc(OC)c(CN3CCN(c4ccc(F)cc4)CC3)c2)cc1,-83.5
5,O=C(O)/C(=C\c1cn(-c2ccccc2)nc1-c1cccnc1)NC(=O)c1ccccc1,11.5
6,O=C(Nc1ccc(CN2CCOCC2)cc1)c1cc2ccccn2n1,5.71
7,Cc1cc(CNC(=O)C2CCC(=O)N(Cc3cccc(C(F)(F)F)c3)C2)no1 (stereo not shown),0.0283
8,CCCN1CCN(C(=O)C(C)n2nc(C)c3sc4ccccc4c3c2=O)CC1 (stereo not shown),6.74
9,CCCCn1nnnc1SCC(=O)NNC(=O)c1ccco1,5.55
10,CC(C)CC(=O)c1c[nH]c(C(=O)NCCc2ccccn2)c1,2.95
11,COc1cccc(NC(=O)C2CCCN2C(=O)Nc2cccc(F)c2)c1 (stereo not shown),11
12,COCCNC(=O)c1ccccc1NC(=O)c1ccccc1N(C)S(=O)(=O)c1ccc(C)cc1,8.36
13,O=C(c1ccc(CS(=O)Cc2ccccc2Cl)o1)N1CCN(C2CCCCC2)CC1 (stereo not shown),13.2
14,COCCNc1ccc(S(=O)(=O)N2CCCC2)cc1[N+](=O)[O-],-1.4
15,O=C(Cc1cccs1)N1CCN(c2cccc(Cl)c2)CC1,9.68
16,CC(C)c1nnc(NC(=O)c2nc(S(=O)(=O)Cc3ccc(F)cc3)ncc2Cl)s1,-3.54
17,CCOc1ccccc1CN1CCC(n2nccc2NC(=O)CCc2ccccc2)CC1,2.97
18,CS(=O)(=O)Oc1ccc(Br)cc1/C=C1/N=C(c2ccco2)OC1=O,14
19,O=c1[nH]c(C2CCN(S(=O)(=O)/C=C/c3ccccc3)CC2)nc2c1nnn2Cc1ccccc1,8.49
20,CCC1(CC)C(=O)C=CNC1=O,-0.937
21,CC1=NN(c2ccccc2)C(=O)/C1=C/c1c(C)[nH]n(-c2ccc(C)cc2)c1=O,-5.54
22,Cn1c(Cl)cnc1C1CC(=O)c2cc(Cl)ccc2O1 (stereo not shown),0.7

row,Compound,"hERG current change (%, negative = inhibition) at 1uM [%]"
1,O=C(NC1CCCc2ccccc21)C1CCN(S(=O)(=O)c2ccccc2)CC1 (stereo not shown),14.5
2,O=C(O)CSc1nc2ccc(Cl)cc2[nH]1,14.5
3,CC(Sc1nnc(CC(C)c2ccccc2)n1N)C(N)=O (stereo not shown),5.23
4,COC(C[C@H]1O[C@@H]1C(=O)COCc1ccccc1)OC,5.82
5,CCOC(=O)C1CCN(C(=O)Nc2ccc3nc(-c4ccco4)c(-c4ccco4)nc3c2)CC1,-6.82
6,O=C(NCc1cccc(Cl)c1)c1ccc(CS(=O)Cc2ccccc2Cl)o1 (stereo not shown),10.8
7,Cn1c(=O)[nH]c(=O)c2c1nc(Br)n2CCSc1nnnn1-c1ccccc1,9.49
8,COC(=O)c1ccc(C(=S)N2CCCCC2)cc1,1.19
9,O=C(CSc1nnc(-c2ccc(Cl)cc2)n1Cc1ccco1)Nc1ccc2c(c1)OCCO2,1.41
10,C[N+](C)(CC#Cc1ccccc1)CC(=O)c1ccc(Cl)cc1,-5.74
11,CCOc1ccc(NC(=O)[C@@H]2CCCN2C(=O)c2cccs2)cc1S(=O)(=O)N1CCCCC1,12.6
12,CC(C)(C)NC(=O)NC(=O)COc1ccc(Br)cc1Br,-8.26
13,CCOC(=O)C1CCN(C(=O)c2cc3c(ccc4ccccc43)o2)CC1,3.1
14,O=C(NC1CCN(Cc2ccccc2)CC1)C1COc2ccccc2O1 (stereo not shown),-32
15,COc1ccc(C(=O)Nc2sc(C)c(-c3ccccc3)c2C#N)cc1OC,8.98
16,COc1ccc(NC(=O)c2ccc3c(c2)OCO3)cc1,17.1
17,O=C(Nc1ccnn1C1CCN(Cc2ccccc2)CC1)C1CCOC1 (stereo not shown),19.8
18,Cc1cc(NC(=O)CSc2ncc(CO)n2Cc2ccc(F)cc2)no1,16.1
19,O=C(NCCCN=C1NS(=O)(=O)c2ccccc21)c1ccncc1,-5.21
20,Cc1cc(C)nc(/N=C(\N)N(Cc2ccccc2)Cc2ccccc2)n1,-31.2
21,O=C(NCCCN1CCOCC1)C1CCN(S(=O)(=O)c2ccccc2)CC1,13.1
22,COC(=O)CC(NC(=O)Nc1ccccc1F)c1ccc2c(c1)OCO2 (stereo not shown),16

row,Compound,"hERG current change (%, negative = inhibition) at 1uM [%]"
1,Brc1ccc(-c2ccc(/C=N/Nc3nc4ccccc4[nH]3)o2)cc1,9.46
2,CCN1CCN(C(=O)c2ccc3c(Cl)c4c(nc3c2)CCCC4)CC1,11.2
3,COc1ccc(-c2cn[nH]c2-c2ccc(OC)cc2)cc1,15.2
4,Cc1ccc2cccc(OCCOCCOc3ccccc3Br)c2n1,8.42
5,O=C(CN1CCN(S(=O)(=O)c2cccc(Cl)c2)CC1)NCC1(N2CCOCC2)CCCCC1,5.88
6,CC(C)CCC(C)NC(=O)c1ccc2nccnc2c1 (stereo not shown),10.6
7,Cc1ccccc1NC(=O)C1CCCN(S(=O)(=O)c2cnc[nH]2)C1 (stereo not shown),2.01
8,O=C(O)c1ccc(/C=N\Nc2ccc(S(=O)(=O)N3CCOCC3)cc2[N+](=O)[O-])cc1,4.96
9,Cc1n[nH]c(=S)n1/N=C/c1ccc(-c2ccc(Cl)cc2)o1,13.2
10,Cc1cc(NCCCN)nc(-c2ccccc2O)n1,11.4
11,CC1(C)CC(=O)C(C=NCCN2CCN(CC(=O)Nc3ccccc3)CC2)=C(O)C1,2.05
12,COC(=O)/C(=C\c1cc(OC)c(OC)c(OC)c1)c1nc2ccccc2[nH]1.Cl,8.47
13,CCOc1cc(N2CCOCC2)c(OCC)cc1NC(=O)COC(=O)c1cc(C)oc1C,4.66
14,Cc1ccc(-c2cc(C(=O)N/N=C/c3c(C)nn(C)c3C)c3ccccc3n2)cc1C,15.8
15,CCCC(C)C(=O)Nc1nnc(CCc2ccccc2)s1 (stereo not shown),6.11
16,COc1cc(NC(=O)CN2CCN(S(=O)(=O)c3ccc(C(C)C)cc3)CC2)cc(OC)c1,-12.1
17,COc1ccc(C2N=C(c3ccccc3)C(C)(C)N2O)cc1 (stereo not shown),14.6
18,O=C1CN(C(=O)COc2ccc([N+](=O)[O-])cc2Cl)c2ccccc2N1,-8.16
19,CCOc1ccccc1N(CC(=O)NC1CCCC1)C(=O)CNC(=O)c1cccs1,1.7
20,Cc1onc(-c2c(Cl)cccc2Cl)c1NC(=O)NN(C)C,11.9
21,Cc1cc2oc(=O)cc(CN3CCCCC3)c2cc1C,14
22,c1ccc(-c2ccc(-c3ccccn3)s2)nc1,2.22
